From patent US20190263932A1 come the findings set out here.

The target in the experiment is human TrkA receptor expressed in transfected 3T3 fibroblast cells (human), P04629. As to the kind of experiment: cell-based or functional assay.
Sequence of human TrkA receptor expressed in transfected 3T3 fibroblast cells (human), P04629 (P04629 33-796): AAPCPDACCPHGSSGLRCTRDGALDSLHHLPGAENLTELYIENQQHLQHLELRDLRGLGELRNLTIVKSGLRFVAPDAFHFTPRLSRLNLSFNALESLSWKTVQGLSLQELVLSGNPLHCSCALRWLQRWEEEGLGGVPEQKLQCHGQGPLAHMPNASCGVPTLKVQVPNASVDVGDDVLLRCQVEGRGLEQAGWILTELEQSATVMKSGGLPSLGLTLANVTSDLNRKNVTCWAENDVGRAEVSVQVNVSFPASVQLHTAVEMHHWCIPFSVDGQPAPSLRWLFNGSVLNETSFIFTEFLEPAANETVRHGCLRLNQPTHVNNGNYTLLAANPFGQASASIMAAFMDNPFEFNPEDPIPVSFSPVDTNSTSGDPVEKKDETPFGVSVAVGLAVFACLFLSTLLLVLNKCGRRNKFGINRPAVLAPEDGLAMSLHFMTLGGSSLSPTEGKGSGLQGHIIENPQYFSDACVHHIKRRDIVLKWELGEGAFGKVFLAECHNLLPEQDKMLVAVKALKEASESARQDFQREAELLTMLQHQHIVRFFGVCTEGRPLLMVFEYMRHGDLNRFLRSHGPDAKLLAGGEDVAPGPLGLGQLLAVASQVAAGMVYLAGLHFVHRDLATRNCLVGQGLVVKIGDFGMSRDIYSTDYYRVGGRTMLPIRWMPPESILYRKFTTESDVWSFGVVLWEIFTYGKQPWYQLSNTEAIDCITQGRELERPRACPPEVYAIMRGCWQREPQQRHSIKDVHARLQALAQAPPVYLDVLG

B1: mAb A (antibody, human IgG4 S228P, kappa, F234A L235A)
heavy: EVQLVESGGGLVKPGGSLRLSCAASGFTFSGVSINWVRQAPGKGLEWVSSETTSSGTIYYADSVKGRFTISRDNAKNSLYLQMNSLRAEDTAVYYCARSYYYGMDVWGQGTTVTVSSASTKGPSVFPLAPCSRSTSESTAALGCLVKDYFPEPVTVSWNSGALTSGVHTFPAVLQSSGLYSLSSVVTVPSSSLGTKTYTCNVDHKPSNTKVDKRV[human IgG4 Fc with S228P F234A L235A (EU numbers) not shown]
light: DIVMTQTPLSSPVTLGQPASISCRSSQSLVHRNGNTYLSWLQQRPGQPPRLLIYKISNRFSGVPDRFSGSGAGTDFTLKISRVEAEDVGVYYCMQARQFPLTFGGGTKVEIKRTVAAPSVFIFPPSDEQLKSGTASVVCLLNNFYPREAKVQWKVDNALQSGNSQESVTEQDSKDSTYSLSSTLTLSKADYEKHKVYACEVTHQGLSSPVTKSFNRGEC
Consider B1, for which the % Max Inhibition, pTrkA was 86%; the % Max stimulation, pTrkA stood at 15%; the EC50 (nM), pTrkA came to 0.13 nM; the IC50 (nM), pTrkA was found to be 0.77 nM. This molecule also registered an Internalized fluorescence per cell, normalized to total antibody levels, hTrkA 3T3 of 33.4%; a pTrkA counts per second, 0.1 pM mAb, no NGF (counts per second) of 132000; a pTrkA counts per second, 1 pM mAb, no NGF (counts per second) of 156000; a pTrkA counts per second, 10 pM mAb, no NGF (counts per second) of 161000. This molecule returned a pTrkA counts per second, 100 pM mAb, no NGF (counts per second) of 205000; a pTrkA counts per second, 1 nM mAb, no NGF (counts per second) of 404000; a pTrkA counts per second, 10 nM mAb, no NGF (counts per second) of 473000; a pTrkA counts per second, 100 nM mAb, no NGF (counts per second) of 385000. Further, the pTrkA counts per second, 1 uM mAb, no NGF (counts per second) came out at 349000; the pTrkA counts per second, NGF +0.1 pM mAb (counts per second) came to 1.2e+06; the pTrkA counts per second, NGF +1 pM mAb (counts per second) came to 1.44e+06; the pTrkA counts per second, NGF +10 pM mAb (counts per second) worked out at 1.54e+06. For the same molecule, the pTrkA counts per second, NGF +100 pM mAb (counts per second) came to 1.21e+06; the pTrkA counts per second, NGF +1 nM mAb (counts per second) is 791000; the pTrkA counts per second, NGF +10 nM mAb (counts per second) was 571000; the pTrkA counts per second, NGF +100 nM mAb (counts per second) was determined as 390000. Besides, the pTrkA counts per second, NGF +1 uM mAb (counts per second) turned out to be 341000.

B2: mAb B (antibody, human IgG4 S228P, kappa, F234A L235A)
heavy: EVQLVESGGGLVKPGGSLRLSCAASGFTFSGVSINWVRQAPGKGLEWVSSETTSSGTIYYADSVKGRFTISRDNAKNSLYLQMNSLRAEDTAVYYCARSYYYGMDVWGQGTTVTVSSASTKGPSVFPLAPCSRSTSESTAALGCLVKDYFPEPVTVSWNSGALTSGVHTFPAVLQSSGLYSLSSVVTVPSSSLGTKTYTCNVDHKPSNTKVDKRV[human IgG4 Fc with S228P F234A L235A (EU numbers) not shown]
light: DIVMTQTPLSSPVTLGQPASISCRSSQSLVHRAGNTYLSWLQQRPGQPPRLLIYKISNRFSGVPDRFSGSGAGTDFTLKISRVEAEDVGVYYCMQARQFPLTFGGGTKVEIKRTVAAPSVFIFPPSDEQLKSGTASVVCLLNNFYPREAKVQWKVDNALQSGNSQESVTEQDSKDSTYSLSSTLTLSKADYEKHKVYACEVTHQGLSSPVTKSFNRGEC
In turn, B2 yielded a % Inh., Human pTrkA, second experiment of 77%; a % Inh., Human pTrkA, third experiment of 74%; a % Max Inhibition, pTrkA of 88%; a % Stim., Human pTrkA, first experiment of less than 15%. The % Stim., Human pTrkA, second experiment is 18%; the % Stim., Human pTrkA, third experiment came out at 36%; the EC50 (nM), Human pTrkA, second experiment stood at 0.46 nM; the EC50 (nM), Human pTrkA, third experiment amounted to 0.35 nM. The molecule further gave an IC50 (nM), Human pTrkA, second experiment of 0.84 nM; an IC50 (nM), Human pTrkA, third experiment of 1.07 nM; an IC50 (nM), pTrkA of 0.58 nM; a pTrkA counts per second, 0.1 pM mAb, no NGF (counts per second) of 433000. The molecule further yielded a pTrkA counts per second, 1 pM mAb, no NGF (counts per second) of 559000; a pTrkA counts per second, 10 pM mAb, no NGF (counts per second) of 561000; a pTrkA counts per second, 100 pM mAb, no NGF (counts per second) of 777000; a pTrkA counts per second, 1 nM mAb, no NGF (counts per second) of 313000. Moreover, the pTrkA counts per second, 10 nM mAb, no NGF (counts per second) stood at 542000; the pTrkA counts per second, 100 nM mAb, no NGF (counts per second) came out at 487000; the pTrkA counts per second, 1 uM mAb, no NGF (counts per second) was 367000; the pTrkA counts per second, +mAb 1 hr (1 uM), no NGF (counts per second) is 46600. Moreover, the pTrkA counts per second, +mAb 24 hr (1 uM), no NGF (counts per second) was found to be 45300; the pTrkA counts per second, NGF +1 pM mAb (counts per second) was 4.34e+06; the pTrkA counts per second, NGF +10 pM mAb (counts per second) is 3.44e+06; the pTrkA counts per second, NGF +100 pM mAb (counts per second) is 3.97e+06. The molecule further had a pTrkA counts per second, NGF +1 nM mAb (counts per second) of 1.07e+06; a pTrkA counts per second, NGF +10 nM mAb (counts per second) of 717000; a pTrkA counts per second, NGF +100 nM mAb (counts per second) of 446000; a pTrkA counts per second, NGF +1 uM mAb (counts per second) of 438000. For the same molecule, the pTrkA counts per second, NGF + mAb 1 hr (1 uM) (counts per second) is 81500 and the pTrkA counts per second, NGF + mAb 24 hr (1 uM) (counts per second) came to 78200.

B3: mAb C (antibody, human IgG4 S228P, kappa, F234A L235A)
heavy: EVQLVESGGGLVKPGGSLRLSCAASGFTFSGVSINWVRQAPGKGLEWVSSETTSSGTIYYADSVKGRFTISRDNAKNSLYLQMNSLRAEDTAVYYCARSYYYGMDVWGQGTTVTVSSASTKGPSVFPLAPCSRSTSESTAALGCLVKDYFPEPVTVSWNSGALTSGVHTFPAVLQSSGLYSLSSVVTVPSSSLGTKTYTCNVDHKPSNTKVDKRV[human IgG4 Fc with S228P F234A L235A (EU numbers) not shown]
light: DIVMTQTPLSSPVTLGQPASISCRSSQSLVHRQGNTYLSWLQQRPGQPPRLLIYKISNRFSGVPDRFSGSGAGTDFTLKISRVEAEDVGVYYCMQARQFPLTFGGGTKVEIKRTVAAPSVFIFPPSDEQLKSGTASVVCLLNNFYPREAKVQWKVDNALQSGNSQESVTEQDSKDSTYSLSSTLTLSKADYEKHKVYACEVTHQGLSSPVTKSFNRGEC
Turning to B3, the % Max Inhibition, pTrkA turned out to be 77%; the % Max stimulation, pTrkA is 23%; the EC50 (nM), pTrkA came to 0.075 nM; the IC50 (nM), pTrkA turned out to be 0.8 nM. The molecule also yielded a pTrkA counts per second, 0.1 pM mAb, no NGF (counts per second) of 242000; a pTrkA counts per second, 1 pM mAb, no NGF (counts per second) of 251000; a pTrkA counts per second, 10 pM mAb, no NGF (counts per second) of 286000; a pTrkA counts per second, 100 pM mAb, no NGF (counts per second) of 389000. The pTrkA counts per second, 1 nM mAb, no NGF (counts per second) is 513000; the pTrkA counts per second, 10 nM mAb, no NGF (counts per second) worked out at 534000; the pTrkA counts per second, 100 nM mAb, no NGF (counts per second) turned out to be 522000; the pTrkA counts per second, 1 uM mAb, no NGF (counts per second) is 420000. Moreover, the pTrkA counts per second, NGF +0.1 pM mAb (counts per second) stood at 2.27e+06; the pTrkA counts per second, NGF +1 pM mAb (counts per second) worked out at 1.92e+06; the pTrkA counts per second, NGF +10 pM mAb (counts per second) is 2.4e+06; the pTrkA counts per second, NGF +100 pM mAb (counts per second) is 2.34e+06. The same molecule showed a pTrkA counts per second, NGF +1 nM mAb (counts per second) of 1.09e+06; a pTrkA counts per second, NGF +10 nM mAb (counts per second) of 620000; a pTrkA counts per second, NGF +100 nM mAb (counts per second) of 511000; a pTrkA counts per second, NGF +1 uM mAb (counts per second) of 394000.
